PubChem BioAssay AID624417 (National Center for Advancing Translational Sciences (NCATS), 2012)
The campaign covered roughly 410,000 compounds. About 6,400 (1.6%) were called active. This list was built around the results that the source calls inconclusive (neither active nor inactive); the mix of calls is not that of the screen. The call rests on the fitted dose curve; in most records, active means well fitted inhibition curve with a large enough effect; inconclusive means small, poorly fitted or top-dose-only effect; inactive means no such curve, though single readings can be large or run the other way. Potencies of inconclusive entries are left out as doubtful fits.

target: Glucagon-like peptide 1 receptor (Homo sapiens) (UniProt P43220); test: qHTS of GLP-1 Receptor Inverse Agonists (Inhibition Mode); details: HEK293 GLP-1R CRE-luciferase, luminescence, 24 h, GLP-1R form is constitutively active; series mostly up to 38.3 µM; further: nearly all actives have a fitted effect of over 55% in size
Sequence of UniProt P43220 (P43220 whole entry, looked up): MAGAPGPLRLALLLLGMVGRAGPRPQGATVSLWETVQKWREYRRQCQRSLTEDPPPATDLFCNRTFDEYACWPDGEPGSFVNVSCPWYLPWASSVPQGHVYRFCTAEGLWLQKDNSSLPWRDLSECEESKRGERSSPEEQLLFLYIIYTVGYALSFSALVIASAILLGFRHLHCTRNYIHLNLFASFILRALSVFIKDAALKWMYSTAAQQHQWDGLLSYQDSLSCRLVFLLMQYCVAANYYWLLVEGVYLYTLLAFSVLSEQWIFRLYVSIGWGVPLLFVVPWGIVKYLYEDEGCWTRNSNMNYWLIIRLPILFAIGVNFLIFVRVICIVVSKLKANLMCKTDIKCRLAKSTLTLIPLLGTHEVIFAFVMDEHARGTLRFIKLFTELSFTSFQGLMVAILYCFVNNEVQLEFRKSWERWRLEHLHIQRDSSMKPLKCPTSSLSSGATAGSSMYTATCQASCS
In short: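 GLP-1R inverse agonism mode: basal reporter luminescence in engineered HEK293 cells measured after one day of compound exposure at 37 deg C, with a 12 min room-temperature detection step.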
Potency means the concentration at half of the fitted maximal effect; tags describe the fitted curve by direction and shape.

SMILES | Potency
CCOC(=O)c1cc(-c2ccccc2)nc2c1c(C)nn2-c1ccccn1 | inconclusive [inhibitor, partial curve, poor fit]
CC(=O)O[C@@H]1C[C@H]2C(C)(C)C(=O)C=C[C@]2(C)[C@H]2CC[C@@]3(C)[C@H](c4ccoc4)OC(=O)[C@H]4O[C@]43[C@@]21C | inconclusive [inhibitor, full curve, poor fit]
OCCNc1nc(Nc2ccccc2)nc(Nc2ccccc2)n1 | inconclusive [inhibitor, single point]
COc1ccc(-n2ccnc2SCC(=O)Nc2cccc(OC)c2)cc1 | inconclusive [inhibitor, single point]
CCOc1ccc(NS(=O)(=O)c2ccc(C(=O)NCC3(N(C)C)CCCCC3)cc2)cc1 | inconclusive [inhibitor, partial curve, poor fit]
CCN(CC)CCNC(=O)CCc1n[nH]c(=O)c2ccccc12 | inconclusive [inhibitor, single point]
Cc1ccc(CNC(=O)C2CCC(CNS(=O)(=O)c3ccc(C)cc3)CC2)cc1 (stereo unspecified) | inactive
Cc1ccc(NC(=O)CN(C)CCOc2ccccc2)c([N+](=O)[O-])c1 | inconclusive [inhibitor, partial curve, poor fit]
COCCNC(=O)Nc1ccc2nc(-c3cccs3)c(-c3cccs3)nc2c1 | inconclusive [inhibitor, partial curve, poor fit]
CC(=O)Nc1ccc(-c2ccnc3c2CC(C)(C(=O)Nc2ccc(Cl)c(C(F)(F)F)c2)O3)cc1 (stereo unspecified) | inconclusive [inhibitor, single point]
Cc1ccc(NC(=O)Cn2cc(C(=O)c3ccco3)c3ccccc32)cc1C | inconclusive [inhibitor, partial curve, poor fit]
O=C(N/N=C/c1cccnc1)c1ccc(Cn2cc([N+](=O)[O-])cn2)o1 | inactive
O=C(Nc1sc2c(c1C(=O)O)CCCC2)c1cccs1 | inconclusive [inhibitor, single point]
Cc1onc(-c2c(Cl)cccc2Cl)c1C(=O)c1ccccc1 | inconclusive [inhibitor, single point]
Cc1cc(Oc2ccc(Cl)cc2)nc(SCC(=O)c2ccccc2)n1 | inconclusive [inhibitor, single point]
CCn1ccc2cc(S(=O)(=O)N3CCCN(C(=O)Nc4cccc(SC)c4)CC3)ccc21 | inconclusive [inhibitor, single point]
